# The BET-seq Pho4 binding data (Le et al. 2018)
# This is one part of the list. The energies were worked out here from pooled read counts, against the library average; single values are noisy.
# Molecular target: T1, Pho4 (S. cerevisiae) (UniProt P07270)
# T1 sequence: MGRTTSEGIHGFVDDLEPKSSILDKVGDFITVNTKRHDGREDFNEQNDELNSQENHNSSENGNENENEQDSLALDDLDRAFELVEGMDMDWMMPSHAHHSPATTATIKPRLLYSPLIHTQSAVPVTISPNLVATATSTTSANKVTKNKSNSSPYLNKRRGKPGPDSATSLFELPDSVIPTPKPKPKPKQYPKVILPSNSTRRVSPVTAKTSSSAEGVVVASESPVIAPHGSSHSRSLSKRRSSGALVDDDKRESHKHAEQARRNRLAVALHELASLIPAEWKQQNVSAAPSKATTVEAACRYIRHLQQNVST
# Assay: relative binding free energy (BET-seq); higher = weaker binding
# Settings: reference: library average
row,Sequence,relative binding free energy
1,GTTGACACGTGTGTAT,0.13 kcal/mol
2,AGATACACGTGGATTG,0.1 kcal/mol
3,GTGGGCACGTGGGGAT,-0.15 kcal/mol
4,GTTTACACGTGGGCAA,0.12 kcal/mol
5,AACTTCACGTGGTTGG,0.16 kcal/mol
6,GTTGGCACGTGTGACT,0.02 kcal/mol
7,AATAACACGTGGGTCG,-0.05 kcal/mol
8,GGGGGCACGTGCCAGT,-0.33 kcal/mol
9,ATGATCACGTGGTTTT,0.13 kcal/mol
10,AATTTCACGTGTATGC,0.27 kcal/mol
11,CGTAGCACGTGGTGCT,-0.13 kcal/mol
12,GATGACACGTGGCTTT,0.12 kcal/mol
13,TGCTTCACGTGGATTT,0.26 kcal/mol
14,ACTTGCACGTGTTGCT,0.15 kcal/mol
15,AACTTCACGTGGTATG,0.19 kcal/mol
16,GTTCGCACGTGCTGGT,-0.04 kcal/mol
17,TGTATCACGTGAGTAG,0.37 kcal/mol
18,GTTCGCACGTGGTGTA,-0.06 kcal/mol
19,TGTTTCACGTGAGGAA,0.35 kcal/mol
20,TATTACACGTGGTGTC,-0.04 kcal/mol
21,ACGGCCACGTGGGAGG,-0.08 kcal/mol
22,TTAAACACGTGGTTTA,-0.09 kcal/mol
23,TGGGGCACGTGCCGGT,-0.24 kcal/mol

row,Sequence,relative binding free energy
1,TTGTGCACGTGATGCG,0.14 kcal/mol
2,GTGGGCACGTGAGGGC,0.2 kcal/mol
3,GGGCGCACGTGTGGGT,-0.03 kcal/mol
4,TTTCGCACGTGGGCGG,-0.18 kcal/mol
5,AGGGGCACGTGACGGG,0.01 kcal/mol
6,AGTTACACGTGGCGTT,0.11 kcal/mol
7,TTTATCACGTGAGCGT,0.4 kcal/mol
8,GTATACACGTGTAATG,0.1 kcal/mol
9,AATAGCACGTGGAAGG,-0.05 kcal/mol
10,GTGGCCACGTGGTTGA,-0.05 kcal/mol
11,GGATTCACGTGATGAT,0.35 kcal/mol
12,ATTTGCACGTGTTGCG,0.01 kcal/mol
13,GGGGCCACGTGTGGAG,0.01 kcal/mol
14,TGCGCCACGTGAGTTG,0.25 kcal/mol
15,TTGGTCACGTGTTATA,0.06 kcal/mol
16,CTGTTCACGTGCTTGT,0.31 kcal/mol
17,TTGGACACGTGTACGG,0.09 kcal/mol
18,GATTGCACGTGGTCGG,-0.05 kcal/mol
19,TGGACCACGTGTGAGG,0.01 kcal/mol
20,TACTTCACGTGCTTGT,0.23 kcal/mol
21,TGACACACGTGTGTAT,-0.02 kcal/mol
22,GTTGTCACGTGTTTAT,0.19 kcal/mol
23,GTTAGCACGTGTACTG,-0.07 kcal/mol

row,Sequence,relative binding free energy
1,TAAATCACGTGAGATG,0.38 kcal/mol
2,TGTGACACGTGTGTAA,-0.01 kcal/mol
3,AGTGTCACGTGTCTTG,0.1 kcal/mol
4,CGGCACACGTGGAGTT,0.16 kcal/mol
5,ATAAACACGTGGGAGT,-0.02 kcal/mol
6,TAGAACACGTGGTTTA,-0.08 kcal/mol
7,TAAGGCACGTGGCGTG,-0.27 kcal/mol
8,TTTCGCACGTGGCTTG,-0.17 kcal/mol
9,GCGGGCACGTGGTCTG,-0.22 kcal/mol
10,GTATGCACGTGGTTCA,-0.07 kcal/mol
11,AGTGTCACGTGTTAGA,0.05 kcal/mol
12,GATTGCACGTGGGGGT,0.01 kcal/mol
13,CTGGCCACGTGGATTG,0.08 kcal/mol
14,GGTATCACGTGGGGTG,0.09 kcal/mol
15,TTTAACACGTGTCAGT,0.04 kcal/mol
16,GGTGGCACGTGCCTGT,-0.14 kcal/mol
17,AATGTCACGTGGGCGA,0.05 kcal/mol
18,TAGATCACGTGCTGTT,0.15 kcal/mol
19,ATAGGCACGTGATGAA,-0.06 kcal/mol
20,AGGTGCACGTGGTATC,-0.17 kcal/mol
21,GAGCCCACGTGGGGTG,-0.16 kcal/mol
22,ATATACACGTGGTGAA,0.01 kcal/mol
23,GTCGGCACGTGGAAGT,0.05 kcal/mol

row,Sequence,relative binding free energy
1,TAATACACGTGGACTT,0.21 kcal/mol
2,CTTTGCACGTGTTGTA,0.09 kcal/mol
3,TTTATCACGTGTCGAA,0.12 kcal/mol
4,CTTGGCACGTGTGCTG,-0.16 kcal/mol
5,AGTTGCACGTGCGTGC,-0.21 kcal/mol
6,TGGAACACGTGTCGGA,0.2 kcal/mol
7,GTAGTCACGTGCAGCG,0.16 kcal/mol
8,GTTGACACGTGTTAGA,-0.08 kcal/mol
9,ACTGGCACGTGTAAGT,0.03 kcal/mol
10,GATAACACGTGGTAGT,0.15 kcal/mol
11,GGTAGCACGTGAAGGC,0.12 kcal/mol
12,GGTTTCACGTGAGAGA,0.57 kcal/mol
13,TAGATCACGTGTGCAT,0.12 kcal/mol
14,CAGGGCACGTGCGGCG,-0.29 kcal/mol
15,ATGGTCACGTGGTCTC,0.05 kcal/mol
16,TTTGTCACGTGTGGGA,0.23 kcal/mol
17,ATTAGCACGTGCGTGT,-0.14 kcal/mol
18,TCTTGCACGTGTGCTG,0.05 kcal/mol
19,ATATGCACGTGGTAGC,-0.13 kcal/mol
20,TTTTCCACGTGGTGAA,-0.03 kcal/mol
21,CGTGACACGTGAGCGG,0.25 kcal/mol
22,AATTACACGTGTGAGG,0.14 kcal/mol
23,GATATCACGTGATTTA,0.22 kcal/mol

row,Sequence,relative binding free energy
1,ATCTTCACGTGCGGTT,0.24 kcal/mol
2,AGGAACACGTGGGCAG,-0.01 kcal/mol
3,CAGTGCACGTGAGGGC,0.24 kcal/mol
4,AGAGGCACGTGCGAGT,-0.16 kcal/mol
5,TGTATCACGTGTAAGT,0.17 kcal/mol
6,TCTAGCACGTGCGTTG,-0.12 kcal/mol
7,TATTGCACGTGGCGCG,-0.14 kcal/mol
8,TATTTCACGTGGTTGC,0.22 kcal/mol
9,TACGGCACGTGGTAAT,-0.14 kcal/mol
10,GTCGGCACGTGTGTGC,0.12 kcal/mol
11,GTCGGCACGTGATTAA,0.21 kcal/mol
12,AAGTTCACGTGATGTG,0.3 kcal/mol
13,TGGTGCACGTGATATC,-0.01 kcal/mol
14,AATGCCACGTGTGTTG,-0.01 kcal/mol
15,ACGCGCACGTGTGTGG,-0.14 kcal/mol
16,GATTTCACGTGGCGAG,0.46 kcal/mol
17,AGGTTCACGTGTTTAC,0.18 kcal/mol
18,TCTGGCACGTGGTATA,-0.33 kcal/mol
19,TGGTTCACGTGTTGCG,0.25 kcal/mol
20,AGGTTCACGTGAGGGG,0.33 kcal/mol
21,AGGTACACGTGAGCTT,0.3 kcal/mol
22,GGGGTCACGTGTAGGG,0.12 kcal/mol
23,GTTCTCACGTGATAGT,0.42 kcal/mol
